# Reference: the supplement of paper PMC8728848
# The list shows a part of the results.
# Key:
# Test in all cases: glycan array binding signal (z-score within array); higher = stronger binding
# Settings in all cases: glycan notation: IUPAC condensed, linker removed
# [1] = target: Gal(b1-4)GlcNAc(b1-2)Man(a1-3)[GlcNAc(b1-4)][Gal(b1-4)GlcNAc(b1-2)Man(a1-6)]Man(b1-4)GlcNAc(b1-4)GlcNAc
# Outline: (§1)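 Glycan array binding is given as a within-array Z-score, which can be read as non-binding when negative. The arrays, 3228 of them, came from the Consortium for Functional Glycomics database and were retained only where the protein sequence was available. Z-scores were averaged across arrays of the same protein sequence at different concentrations or buffers and across linkers.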
# [2] = target: Gal(b1-4)GlcNAc(b1-2)Man(a1-3)[Man(a1-6)]Man(b1-4)GlcNAc(b1-4)GlcNAc
# Outline: as §1
# [3] = target: Gal(b1-4)GlcNAc(b1-2)Man(a1-6)Man(b1-4)GlcNAc(b1-4)GlcNAc
# Outline: as §1
# [4] = target: Gal(b1-4)GlcNAc(b1-2)Man(a1-6)[GlcNAc(b1-2)Man(a1-3)]Man(b1-4)GlcNAc(b1-4)GlcNAc
# Outline: as §1
# [5] = target: Gal(b1-4)GlcNAc(b1-2)Man(a1-6)[Man(a1-3)]Man(b1-4)GlcNAc(b1-4)GlcNAc
# Outline: as §1
# [6] = target: Gal(b1-4)GlcNAc(b1-2)[Gal(b1-4)GlcNAc(b1-4)]Man(a1-3)[Gal(b1-4)GlcNAc(b1-2)Man(a1-6)]Man(b1-4)GlcNAc(b1-4)GlcNAc
# Outline: as §1
# [7] = target: Gal(b1-4)GlcNAc(b1-2)[Gal(b1-4)GlcNAc(b1-4)]Man(a1-3)[Gal(b1-4)GlcNAc(b1-2)[Gal(b1-4)GlcNAc(b1-6)]Man(a1-6)]Man(b1-4)GlcNAc(b1-4)GlcNAc
# Outline: as §1
# [8] = target: Gal(b1-4)GlcNAc(b1-2)[Gal(b1-4)GlcNAc(b1-4)]Man(a1-3)[Gal(b1-4)GlcNAc(b1-2)[Gal(b1-4)GlcNAc(b1-6)]Man(a1-6)][GlcNAc(b1-4)]Man(b1-4)GlcNAc(b1-4)GlcNAc
# Outline: as §1
# [9] = target: Gal(b1-4)GlcNAc(b1-2)[Gal(b1-4)GlcNAc(b1-4)]Man(a1-3)[GlcNAc(b1-4)][Gal(b1-4)GlcNAc(b1-2)Man(a1-6)]Man(b1-4)GlcNAc(b1-4)GlcNAc
# Outline: as §1
# [10] = target: Gal(b1-4)GlcNAc(b1-2)[Gal(b1-4)GlcNAc(b1-4)]Man(a1-3)[GlcNAc(b1-4)][Gal(b1-4)GlcNAc(b1-2)[Gal(b1-4)GlcNAc(b1-6)]Man(a1-6)]Man(b1-4)GlcNAc(b1-4)GlcNAc
# Outline: as §1
# [11] = target: Gal(b1-4)GlcNAc(b1-2)[Gal(b1-4)GlcNAc(b1-6)]Man(a1-6)[Gal(b1-4)GlcNAc(b1-2)Man(a1-3)]Man(b1-4)GlcNAc(b1-4)GlcNAc
# Outline: as §1
# [12] = target: Gal(b1-4)GlcNAc(b1-2)[Gal(b1-4)GlcNAc(b1-6)]Man(a1-6)[Gal(b1-4)GlcNAc(b1-2)Man(a1-3)]Man(b1-4)GlcNAc(b1-4)[Fuc(a1-6)]GlcNAc
# Outline: as §1
# [13] = target: Gal(b1-4)GlcNAc(b1-2)[Gal(b1-4)GlcNAc(b1-6)]Man(a1-6)[GlcNAc(b1-4)][Gal(b1-4)GlcNAc(b1-2)Man(a1-3)]Man(b1-4)GlcNAc(b1-4)GlcNAc
# Outline: as §1
# [14] = target: Gal(b1-4)GlcNAc(b1-2)[Gal(b1-4)GlcNAc(b1-6)]Man(a1-6)[GlcNAc(b1-4)][Gal(b1-4)GlcNAc(b1-2)[Gal(b1-4)GlcNAc(b1-4)]Man(a1-3)]Man(b1-4)GlcNAc(b1-4)[Fuc(a1-6)]GlcNAc
# Outline: as §1
# [15] = target: Gal(b1-4)GlcNAc(b1-3)Gal(b1-3)GalNAc
# Outline: as §1
# [16] = target: Gal(b1-4)GlcNAc(b1-3)Gal(b1-3)GlcNAc
# Outline: as §1
# [17] = target: Gal(b1-4)GlcNAc(b1-3)Gal(b1-4)Glc
# Outline: as §1
# [18] = target: Gal(b1-4)GlcNAc(b1-3)Gal(b1-4)GlcNAc
# Outline: as §1
# [19] = target: Gal(b1-4)GlcNAc(b1-3)Gal(b1-4)GlcNAc(b1-2)Man(a1-3)[Gal(b1-4)GlcNAc(b1-3)Gal(b1-4)GlcNAc(b1-2)Man(a1-6)]Man(b1-4)GlcNAc(b1-4)GlcNAc
# Outline: as §1
# [20] = target: Gal(b1-4)GlcNAc(b1-3)Gal(b1-4)GlcNAc(b1-2)Man(a1-3)[Gal(b1-4)GlcNAc(b1-3)Gal(b1-4)GlcNAc(b1-2)Man(a1-6)]Man(b1-4)GlcNAc(b1-4)[Fuc(a1-6)]GlcNAc
# Outline: as §1
# [21] = target: Gal(b1-4)GlcNAc(b1-3)Gal(b1-4)GlcNAc(b1-2)[Gal(b1-4)GlcNAc(b1-3)Gal(b1-4)GlcNAc(b1-6)]Man(a1-6)[Gal(b1-4)GlcNAc(b1-3)Gal(b1-4)GlcNAc(b1-2)Man(a1-3)]Man(b1-4)GlcNAc(b1-4)GlcNAc
# Outline: as §1
# [22] = target: Gal(b1-4)GlcNAc(b1-3)Gal(b1-4)GlcNAc(b1-2)[Gal(b1-4)GlcNAc(b1-3)Gal(b1-4)GlcNAc(b1-6)]Man(a1-6)[Gal(b1-4)GlcNAc(b1-3)Gal(b1-4)GlcNAc(b1-2)Man(a1-3)]Man(b1-4)GlcNAc(b1-4)[Fuc(a1-6)]GlcNAc
# Outline: as §1
binder,measurement,setting,value
rMpL (Macrolepiota procera) (protein) MSTQVSSGRTYKITNVIAGTVIDLSGEDNKSIIGYPYHSGKNQQWTFNWTGKAWTLRSASSGSYLGIEGTPAGGTRLVAVNDPFEWHIWRDEANENAFRIFVPFTNYNLDLSGYGDTTPGTPVQLWWTWEGLHQTWTIDRP,glycan array binding signal (z-score),[1],0.488
same,glycan array binding signal (z-score),[2],0.109
same,glycan array binding signal (z-score),[3],-0.176
same,glycan array binding signal (z-score),[4],-0.158
same,glycan array binding signal (z-score),[5],0.139
same,glycan array binding signal (z-score),[6],2.34
same,glycan array binding signal (z-score),[7],2.77
same,glycan array binding signal (z-score),[8],4.13
same,glycan array binding signal (z-score),[9],1.46
same,glycan array binding signal (z-score),[10],2.08
same,glycan array binding signal (z-score),[11],1.74
same,glycan array binding signal (z-score),[12],2.3
same,glycan array binding signal (z-score),[13],1.09
same,glycan array binding signal (z-score),[14],2.28
same,glycan array binding signal (z-score),[15],-0.368
same,glycan array binding signal (z-score),[16],0.138
same,glycan array binding signal (z-score),[17],0.454
same,glycan array binding signal (z-score),[18],0.366
same,glycan array binding signal (z-score),[19],1.67
same,glycan array binding signal (z-score),[20],1.98
same,glycan array binding signal (z-score),[21],1.23
same,glycan array binding signal (z-score),[22],3.75
